The source of these data is the RNAGym collection of RNA variant scans (doi:10.7554/elife.90254).

The labels stand for the following.
B1: LINE1-full (parent)
chain: UACGUAGGUGGUUUUCCCCUGAUAGUGCUAAGGGGGCCUGGAAGUUUGGACUGGGCAGAGCUCAACACAGCGUGGCAAAGUGGCUGUGGCUAGACUGCCUCUCUGGAUUCCUCGUCACUCAGCAGGGCAUCUCUGAGAGAAAUGCC

The source gives no read counts; variants with many changes may rest on few reads.

In this series the parent is B1. Kind of series: self-cleavage, relative activity (ratio to wild type); higher = more cleavage; in vitro, sequencing; the parent is a self-cleaving ribozyme.
With A6G U47A U52C, the self-cleavage was 1.53.
For U5G A121G U130C the value was 0.42; for U23A A92G U115A, 0.14.
C17U U130C A138G: the self-cleavage stood at 0.94.
For U26A A77G U109C C120U, the self-cleavage came out at 1.87.
For G72A U134G A136G, the self-cleavage came out at 1.9.
U39A U104C A140U: the self-cleavage is 1.76.
A2G U13A A43U A121U: the self-cleavage was 0.34.
For A59G U96C A141G the value was 0; for U5C U81C G97A U108C U132C A141G, 0.35; for U5C A42G U62C A79G U130A, 0.53.
For A31U A59G A136G the value was 0.17; for A57U U62A A140G, 0.04; for U9C C19U A78G, 1.18.
On to U12C A22G A77G, for which the self-cleavage turned out to be 1.84.
As to C17A A30G U134C, the self-cleavage was determined as 2.51.
Take C98A U115C A142G: the self-cleavage is 0.83.
Next, A43U G55A U104A: 0.07; U12C G58U U73C: 0.11.
Regarding U9C U73C A77G A94U U102C A121U, the self-cleavage stood at 1.02.
For U15A G82A C99A A140G the value was 0.51; for G58A A59U A65G, 0.04.
For U13C U26C A77G the value was 1.67.
For U1C U12C A30G U102C the value was 0.97; for G32A U52C A67U U134A, 0.07; for U5C U20C C56U, 0.3.
For U13A U47C A69U A77U U96A U132A A141G, the self-cleavage was 0.01.
Next, U23A A65G G80A U112C: 0.22.
For U15C U46A U132C the value was 0.98; for U15C C61A A129G, 0.08.
Next, U23C G34U U130C: 0.95; U23A U112A A142G: 1.04; A78G A121C A136G: 2.04.
As for U45C A117C A138G, the self-cleavage amounted to 0.61.
Next, U14A A31U C113U A129U: 0.94; U5C U12G U14C G36C G48A U73C: 1; U5C A79G C118U: 0.52.
Next, C103G U104G A141G: 0.96; A6U C19U U85C: 0.23.
Next, A22G U47C A64G A141U: 0.
In the case of A30U A69C A94G, the self-cleavage was 0.25.
For U46A A57G A121G the value was 0.91.
Next, A2G G41A U100C U104C U112C: 0.51.
Regarding U15C U85C A117G, the self-cleavage is 0.3.
Regarding A22G A78U A142G, the self-cleavage was determined as 1.87.
Turning to G74A U130C A140G, the self-cleavage stood at 1.67.
With U62C A77G U81C A94U, the self-cleavage is 0.
Next, U15C A31G U39C: 1.2.
Next, U39C A43G A77U: 0.8.
Take A50G U134G A140G: the self-cleavage was 0.97.
U39C U91A A141G: the self-cleavage is 0.
Next, U9C U62C U96C: 0.06; U13C U62A A124G: 0.24.
Consider A59G G83A C146U, for which the self-cleavage worked out at 0.1.
For U62A A138G U143A, the self-cleavage is 0.06.
For the variant A50G U130C U134G, the self-cleavage worked out at 2.63.
For U14A A64G A67G A121U the value was 0; for A24U U29C C95U U119C, 0.41.
For U20C A31G G60A the value was 0; for G7A A50U U73C, 1.38; for C3U U13C A43G A117G, 0.97.
On to U9C U39C U47A A64U, for which the self-cleavage was found to be 0.37.
Regarding A2G G88A U108C A117U A121G A136U A138U, the self-cleavage is 0.
For G60A A78G A117G the value was 0.03.
As to U12G A59G G60U G80A G97C, the self-cleavage amounted to 0.05.
For U15C U20A A42G A107U A129C the value was 0; for U9C U14C C66U U100C A138G, 0.18; for U109C A124G A129G, 0.4.
In the case of U12A A57G A65G C133A, the self-cleavage was found to be 0.28.
For U13C G114A U130C the value was 0.87; for A59G U119A A138G, 0.06; for A69G A78G C111U U132C A140G, 0.11.
As to G35A A79G A107G A121U, the self-cleavage was found to be 0.93.
For U45C G74A A77G U104A A141G the value was 1.75.
Next, U39C G72U A77G G97U: 0.03; C66U A78G U81A A94G C98U U108A: 0.02.
Next, A6U A69G A77U A136G: 0.9; A2G U62C U143C: 0.24.
As to U14C A57G G82A, the self-cleavage turned out to be 0.99.
Next, C16A U52A U102C U134A A136G: 0.23; U9C A42U A138G A140G: 1.86; U14C G33U U115C A129U U130C: 2.39.
As for A30G U109C A124G, the self-cleavage stood at 1.53.
For U13C U23C U26A A77G A94U U130C the value was 1.67; for A30U A43U C103U U109A A142C, 1.11; for A59G C99U A121G, 0.18.
U1C A64G A69G: the self-cleavage is 0.13.
For U12G A30G U62C U134A the value was 0; for A64U A79G U104A U112A, 0.21.
On to A67G U91A G122A G137U, for which the self-cleavage is 0.12.
Next, U26C A30C A77U U81A U143C: 2.44; U9C A59U A78U A107U U130C: 1.44.
As to U5C U46C A129G A142G, the self-cleavage was 1.12.
For A30G G74A A92G the value was 0.05; for U23C U96C U134A, 0.13; for U29A G53A A94U, 0.17.
Next, A2G U15C U109C A141G: 0.26; U62C G86A A140G: 0.06.
In the case of U23A U62C U143C, the self-cleavage was found to be 0.
As to U62C U73C U100C G114A, the self-cleavage was 0.04.
As for A59G U115C U130C, the self-cleavage amounted to 0.
A6U U13C U143A: the self-cleavage was determined as 1.38.
Next, U1C U14C G34A A43U U143C: 0.41.
Next, U20C U73A U81A: 1.94.
As for A6G A30G A43U A69G U100C, the self-cleavage worked out at 0.
As to U47C A64G C71G A78G U104C, the self-cleavage came out at 0.61.
Next, A30G A42G A77G A121U: 0.71; G75U C76A U81C A124G: 1.1; U9A A77U U96A A124G: 0.
For U26C A64G A141G the value was 0.4.
For G21A U47C U62C the value was 0.04.
As for U46C A69G A142G, the self-cleavage was 0.34.
As to U29C A94G A107G A141G, the self-cleavage turned out to be 0.
Next, U15C U104A A129C: 1.51.
On to U23C U96A U109C A129G, for which the self-cleavage worked out at 0.
For U12C G33A A67U U73C A124G the value was 0; for A64U U102C U115C, 0; for U45C U47C A69U A94C, 0.
Next, U73C U87A A142G: 0; C3U A22G G82U: 0.75; A57G A78G U115C: 2.12.
For U9A A57G U119C the value was 1.38; for G48U A94G U115A A142G, 0.17.
U1C G21A U26A: the self-cleavage was found to be 0.44.
Next, U12C G88A U109C: 0.05; U14C U45A A117G G122A: 2.21; C84U A107G A140G: 0.12.
On to U13C A64G A65G, for which the self-cleavage is 0.18.
Next, U5C U20A U52C U73A U104A: 0.77; C61G U100C U112A: 0.09; U14C A30G U134C A141G: 1.99.
For the variant U9A C38U U87A U115C, the self-cleavage turned out to be 0.09.
Next, A31U A59G A117G: 0.
In the case of U5A U46C U104G A138G, the self-cleavage came out at 2.16.
Next, A31G A138G G144A: 1.02; A69G U85A A121G U143C: 0.1; A57C U87G U134C: 0.
Next, A42U A50U U62A G105A: 0.02; U29C A67G A77U U119C: 0.61; A2G A77G G89U: 0.24.
Next, U5C G40A U81A: 0.28.
In the case of U62C U85C A124G, the self-cleavage worked out at 0.
For U15C U39A A43G A121C U143C the value was 0.16; for U1C A77G U102C U119C, 0.48; for U15A A77U G88U U91A, 0.04.
Next, U13C G34A U62C A136U A140U: 0.
Take G7C A30G A117G: the self-cleavage worked out at 0.95.
For A64U U96A A117G G144A the value was 0.47; for U12G A50U A92U A142G, 0.66.
For G7A U85C U119A A124G the value was 0; for U62C A78U U91C C113U, 0.03.
Consider C98A A121G A138G, for which the self-cleavage is 0.45.
Next, U13C A117G A124U: 2.19.
On to U14A A79G C98G, for which the self-cleavage stood at 0.04.
Next, U9C A67U A94G: 0.16.
For A2G U23C U39C A117U the value was 0.39; for A31U G34A G35U G53U A138G, 2.3.
Next, U102C U119C A140U: 1.62; U9A U26A U45A G58U U132C: 0.12; U39C A129G A138G A142G: 1.23.
In the case of U45C G49A U62C U134C, the self-cleavage was determined as 0.08.
Consider U85C U132C U143C, for which the self-cleavage was 0.16.
As to U62A C120U U134C, the self-cleavage was determined as 0.03.
For A117G A121U G126A the value was 1.55.
For U14C G33A A42G A78G U115C the value was 1.59; for A6U U119A U132C, 1.18.
On to A42G A64G U87A A140G, for which the self-cleavage was found to be 0.
